Measurements published in PubChem BioAssay AID504333 (National Center for Advancing Translational Sciences (NCATS), 2011).
About 16,000 (4.4%) of roughly 360,000 compounds were called active. Entries that show only a call come without a potency. Inconclusive means that the source gave no clear call. Such entries were picked first, then a sample of the others. The call rests on the fitted dose curve; in most records, active means well fitted inhibition curve with a large enough effect; inconclusive means small, poorly fitted or top-dose-only effect; inactive means no such curve, though single readings can be large or run the other way. Where the call is inconclusive, the potency comes from a doubtful curve fit.

These compounds were tested against Bromodomain adjacent to zinc finger domain protein 2B (Homo sapiens) (UniProt Q9UIF8) (assay: qHTS Assay for Inhibitors of BAZ2B). Conditions: AlphaScreen BAZ2B-H3K14Ac peptide displacement; series mostly up to 114 µM.
Outline: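 BAZ2B (50 nM) with biotin-H3(5-23)K14Ac peptide (50 nM) in PBS pH 7.4, 0.01% Tween-20, preformed 30 min, then compound 30 min at room temperature; top concentration 110uM. AlphaScreen streptavidin donor/nickel chelate acceptor beads (10 ug/mL final), 20 min dark, signal read.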
Further: nearly all actives have a fitted effect of over 60% in size.
Potency means the concentration at half of the fitted maximal effect; tags describe the fitted curve by direction and shape.

Chain of UniProt Q9UIF8 (Q9UIF8 whole entry, looked up, the tested form may be a part): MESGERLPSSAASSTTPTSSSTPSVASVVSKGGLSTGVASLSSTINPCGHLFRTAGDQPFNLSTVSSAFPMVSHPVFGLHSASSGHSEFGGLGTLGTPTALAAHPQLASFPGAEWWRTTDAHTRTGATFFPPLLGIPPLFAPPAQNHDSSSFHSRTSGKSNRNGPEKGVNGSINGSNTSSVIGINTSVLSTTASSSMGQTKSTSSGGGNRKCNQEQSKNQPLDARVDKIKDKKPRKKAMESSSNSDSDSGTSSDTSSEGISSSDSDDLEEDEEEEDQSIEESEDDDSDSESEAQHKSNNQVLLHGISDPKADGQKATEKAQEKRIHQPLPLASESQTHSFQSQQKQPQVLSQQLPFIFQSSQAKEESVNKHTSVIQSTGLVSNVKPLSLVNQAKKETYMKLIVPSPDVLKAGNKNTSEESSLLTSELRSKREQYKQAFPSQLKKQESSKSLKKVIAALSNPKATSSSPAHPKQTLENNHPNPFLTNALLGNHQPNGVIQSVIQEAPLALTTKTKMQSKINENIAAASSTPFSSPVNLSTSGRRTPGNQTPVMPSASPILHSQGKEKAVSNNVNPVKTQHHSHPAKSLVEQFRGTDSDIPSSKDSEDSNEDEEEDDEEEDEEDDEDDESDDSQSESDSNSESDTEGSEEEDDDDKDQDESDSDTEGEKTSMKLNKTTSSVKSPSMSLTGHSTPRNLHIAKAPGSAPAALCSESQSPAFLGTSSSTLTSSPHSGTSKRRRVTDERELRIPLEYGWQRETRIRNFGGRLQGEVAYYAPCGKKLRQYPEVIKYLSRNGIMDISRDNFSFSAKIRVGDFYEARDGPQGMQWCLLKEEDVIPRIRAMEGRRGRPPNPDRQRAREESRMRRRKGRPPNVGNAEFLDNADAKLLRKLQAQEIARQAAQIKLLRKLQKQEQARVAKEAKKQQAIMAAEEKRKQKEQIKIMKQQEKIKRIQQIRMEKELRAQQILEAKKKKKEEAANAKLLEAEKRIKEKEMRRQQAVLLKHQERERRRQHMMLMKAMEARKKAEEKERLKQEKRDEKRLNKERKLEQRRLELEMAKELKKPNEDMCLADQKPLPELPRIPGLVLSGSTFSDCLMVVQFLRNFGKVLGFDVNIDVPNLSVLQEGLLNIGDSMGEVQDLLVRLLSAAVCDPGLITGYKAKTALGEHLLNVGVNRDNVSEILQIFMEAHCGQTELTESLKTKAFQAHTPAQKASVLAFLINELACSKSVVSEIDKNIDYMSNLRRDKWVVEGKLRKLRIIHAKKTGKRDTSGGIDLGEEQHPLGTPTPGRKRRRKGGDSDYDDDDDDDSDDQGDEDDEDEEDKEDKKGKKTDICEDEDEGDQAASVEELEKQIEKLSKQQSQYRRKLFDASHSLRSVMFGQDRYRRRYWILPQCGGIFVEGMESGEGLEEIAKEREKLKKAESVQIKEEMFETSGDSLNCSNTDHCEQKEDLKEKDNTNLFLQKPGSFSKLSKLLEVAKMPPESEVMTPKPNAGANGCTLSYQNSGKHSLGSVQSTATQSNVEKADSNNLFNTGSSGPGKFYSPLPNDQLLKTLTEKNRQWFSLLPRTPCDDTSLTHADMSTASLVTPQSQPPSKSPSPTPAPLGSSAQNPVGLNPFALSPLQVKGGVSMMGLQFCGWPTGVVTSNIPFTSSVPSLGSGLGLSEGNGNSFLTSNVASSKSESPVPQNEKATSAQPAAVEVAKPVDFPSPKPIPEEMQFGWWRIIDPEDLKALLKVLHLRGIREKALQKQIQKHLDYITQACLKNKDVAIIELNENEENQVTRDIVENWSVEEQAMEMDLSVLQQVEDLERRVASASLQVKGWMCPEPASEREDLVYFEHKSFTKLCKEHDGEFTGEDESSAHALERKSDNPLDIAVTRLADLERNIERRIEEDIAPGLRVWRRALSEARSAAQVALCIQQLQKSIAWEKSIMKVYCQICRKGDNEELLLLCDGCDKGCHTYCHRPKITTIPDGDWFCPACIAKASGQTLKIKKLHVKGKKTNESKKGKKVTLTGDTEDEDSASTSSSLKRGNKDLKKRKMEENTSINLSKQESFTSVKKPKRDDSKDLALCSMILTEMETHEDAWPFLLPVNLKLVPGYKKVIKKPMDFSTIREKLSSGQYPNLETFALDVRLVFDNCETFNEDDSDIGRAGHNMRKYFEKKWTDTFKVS

Question: With O=C(NCc1ccco1)c1ccc(S(=O)(=O)N2CCOCC2)cc1 as the compound, how does the Potency read?
Answer: active: 79.4 µM

Question: COC(=O)COc1ccc(S(=O)(=O)NCc2ccccn2)cc1 was tested. Which Potency did it give?
Answer: inactive

Question: For COc1cccc(-c2nnc3sc(CN4CCCCC4)cn23)c1, which Potency is on record?
Answer: inactive

Question: How did the Potency turn out when O=c1cc(-c2ccccc2Cl)oc2ccc([N+](=O)[O-])c(O)c12 was run?
Answer: inconclusive: 8.91 µM [inhibitor, full curve, poor fit]

Question: How did the Potency turn out when Cc1ccc(S(=O)(=O)N(C)/N=C/c2ccc(N(C)C)cc2)cc1 was run?
Answer: active: 25.1 µM

Question: With CCc1nnc(NC(=O)CN2C(=O)/C(=C/c3cc(OC)c(OC)c(OC)c3)SC2=S)s1 as the compound, how does the Potency read?
Answer: inactive

Question: O=C(NCCc1ccc(Cl)cc1)c1ccc2c(c1)N(Cc1cccc(Cl)c1)C(=O)c1ccccc1S2(=O)=O was tested. Which Potency did it give?
Answer: inactive

Question: With Cc1ccc(-c2ccc(/C=N\n3cnnc3)o2)c(Br)c1 as the compound, how does the Potency read?
Answer: inactive

Question: How did the Potency turn out when CCSCc1nc2ccccn2c1Br was run?
Answer: inconclusive: 79.4 µM [inhibitor, single point]

Question: c1ccc(COc2ccccc2CNC2CCCC2)cc1 was tested. Which Potency did it give?
Answer: inactive

Question: How did the Potency turn out when COc1cc(CSc2nnnn2-c2ccc(C)cc2)cc(OC)c1OC was run?
Answer: inactive

Question: For O=C(Nc1ccccn1)C1CCN(c2ncnc3c2nc2n3CCCCC2)CC1, which Potency is on record?
Answer: inconclusive: 79.4 µM [inhibitor, single point]

Question: With CCN(CC)C(=O)COc1ccc(-c2nnc(Nc3ccc(OC)c(C(=O)NC)c3)c3ccccc23)cc1 as the compound, how does the Potency read?
Answer: inactive

Question: With NC(=S)Cc1nc(-c2ccccc2)cs1 as the compound, how does the Potency read?
Answer: inconclusive: 79.4 µM [inhibitor, single point]

Question: How did the Potency turn out when COc1ccc(NC(=O)CCc2nc3ccccc3[nH]2)cc1 was run?
Answer: inconclusive: 89.1 µM [inhibitor, single point]

Question: COc1cccc(OC)c1OCCCCN1CCCCC1 was tested. Which Potency did it give?
Answer: active: 50.1 µM

Question: How did the Potency turn out when COc1ccccc1-c1nc(SCC(=O)Nc2ccc(C)c(C)c2)n[nH]1 was run?
Answer: inactive

Question: How did the Potency turn out when NC(=O)c1cc2ccccc2o/c1=N\NC(=O)c1ccccc1O was run?
Answer: inconclusive: 89.1 µM [inhibitor, single point]

Question: CCc1c(C)nc2ccc(Br)cc2c1Cl was tested. Which Potency did it give?
Answer: inactive

Question: Which Potency does the source give for CC(=O)c1cc2c(cc1NC(=O)CSc1ccc(S(=O)(=O)N(C)C)cn1)OCO2 here?
Answer: inactive

Question: How did the Potency turn out when Cc1nnc(Nc2ccccn2)c2ccccc12 was run?
Answer: inconclusive: 89.1 µM [inhibitor, single point]

Question: For NC(=O)C1CCCN(C(=O)CNC(=O)C23CC4CC(CC(C4)C2)C3)C1 (centres undefined), which Potency is on record?
Answer: inactive

Question: With Oc1cc(Nc2ccccc2)cc2cccnc12 as the compound, how does the Potency read?
Answer: inconclusive: 89.1 µM [inhibitor, single point]

Question: Which Potency does the source give for CCCCC(=O)Nc1nc(C)c(-c2csc(Nc3ccccc3OC)n2)s1 here?
Answer: inconclusive: 79.4 µM [inhibitor, single point]
